# In all, about 39,000 compounds went through this assay and about 220 (0.56%) showed activity. The list shows a part of the results.
# Tested on: Escherichia coli K-12 BW25113
# Assay: relative growth (OD600 normalised to plate interquartile mean) (fraction); higher = less growth inhibition, active = 0.2 or less
# Conditions: 50 µM; LB; incubation time: overnight (16-24 h)
# 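Also: static incubation at 37 °C against the wild-type strain, values averaged over two biological replicates.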
row,Structure (SMILES),relative growth
1,C[C@@H](NC(=O)C[C@H]1CC[C@@H](NC(=O)CN2CCOCC2)[C@@H](CO)O1)c1ccccc1,inactive: 1.02
2,CO[C@H]1CN(C)C(=O)c2ccc(NS(C)(=O)=O)cc2OC[C@H](C)N(C(=O)C2CCOCC2)C[C@@H]1C,inactive: 0.979
3,C[C@@H]1CN([C@@H](C)CO)S(=O)(=O)c2ccc(C3=CCCC3)cc2O[C@H]1CN(C)C(=O)Cc1ccncc1,inactive: 1.01
4,O=C(N[C@@H]1C=C[C@@H](CC(=O)N2CCOCC2)O[C@H]1CO)c1ccc2c(c1)OCO2,inactive: 0.952
5,O=C(C[C@@H]1CC[C@@H]2[C@H](COC[C@@H](O)CN2Cc2ccccc2F)O1)N[C@@H]1CCN(Cc2ccccc2)C1,inactive: 1.01
6,Cc1cc2cccc(C(=O)N[C@H]3CC[C@@H](N)CC3)c2o1,inactive: 0.989
7,CC(C)NC(=O)N(C)C[C@@H]1OCCCC[C@@H](C)Oc2ccc(NS(C)(=O)=O)cc2C(=O)N([C@@H](C)CO)C[C@H]1C,inactive: 1.02
8,CCO[C@H]1[C@H]2CC[C@@H]1N(C(=O)N(C)C)CCO2,inactive: 1.03
9,CN1C(=O)c2cc(NS(C)(=O)=O)ccc2OC[C@H]2O[C@H](CC(=O)N3CCOCC3)CC[C@H]21,inactive: 1.02
10,C[C@H](CO)N1C[C@H](C)[C@H](CN(C)C(=O)Nc2ccccc2)OCCCC[C@H](C)Oc2ccc(NC(=O)Nc3ccc(F)cc3)cc2C1=O,inactive: 1.07
11,Cc1noc(C)c1S(=O)(=O)Nc1ccc2c(c1)C(=O)N([C@H](C)CO)C[C@H](C)[C@@H](CN(C)CC1CC1)O2,inactive: 1.01
12,"CC(C)CCCC(C)C1CCC2C3CC(O)C4(O)CC(O)CCC4(C)C3CCC12C (stereo not drawn) [""CHOLESTAN-3beta,5alpha,6beta-TRIOL""]",inactive: 1.04
13,CCS(=O)(=O)Nc1ccc2c(c1)C(=O)N(C)C[C@@H](OC)[C@@H](C)CN(Cc1nccs1)[C@@H](C)CO2,inactive: 0.984
14,CNCc1nc2ccsc2c(=O)[nH]1,inactive: 0.971
15,COc1ccc(S(=O)(=O)Nc2ccc3c(c2)C(=O)N([C@@H](C)CO)C[C@H](C)[C@@H](CN(C)S(C)(=O)=O)O3)cc1,inactive: 0.979
16,O=C(Nc1ccc2c(c1)[C@@H]1C[C@H](CC(=O)N3CCc4ccccc4C3)O[C@H](CO)[C@@H]1O2)C1CCOCC1,inactive: 0.983
17,Cc1cccc([C@@H](N)c2nccn2C)c1,inactive: 1.02
18,C[C@@H]1CN([C@H](C)CO)C(=O)Cc2cc(NC(=O)CCCCCC(=O)Nc3ccccc3N)ccc2O[C@H]1CN(C)C(=O)Nc1ccccc1,inactive: 0.991
19,C[C@H](CO)N1C[C@H](C)[C@H](CN(C)CC2CCOCC2)Oc2cc(-c3cccnc3)ccc2S1(=O)=O,inactive: 1
20,C[C@@H]1CN([C@H](C)CO)C(=O)Cc2cc(NC(=O)c3ccncc3)ccc2O[C@H]1CN(C)S(C)(=O)=O,inactive: 1.01
21,C[C@H](CO)N1C[C@H](C)[C@H](CN(C)C(=O)c2ccccc2)OCCCC[C@H](C)Oc2ccc(NC(=O)Nc3ccc(C(F)(F)F)cc3)cc2C1=O,inactive: 1.03

row,Structure (SMILES),relative growth
1,NCc1ccc(S(=O)(=O)N2CCOCC2)cc1,inactive: 0.968
2,C[C@@H]1CCCCO[C@H](CN(C)C(=O)C2CCCCC2)[C@@H](C)CN([C@H](C)CO)C(=O)c2cc(NS(=O)(=O)c3cccs3)ccc2O1,inactive: 1.03
3,O=C(C[C@@H]1CC[C@@H](NC(=O)Cc2ccccn2)[C@@H](CO)O1)NCCc1ccncc1,inactive: 0.981
4,COc1ccc(NC(=O)Nc2ccc3c(c2)C(=O)N([C@H](C)CO)C[C@@H](C)[C@@H](CN(C)Cc2ccc(Cl)c(Cl)c2)OCCCC[C@H](C)O3)cc1,inactive: 0.873
5,Cc1ccc(S(=O)(=O)N(C)C[C@@H]2OCCCC[C@H](C)Oc3ccc(NS(C)(=O)=O)cc3C(=O)N([C@@H](C)CO)C[C@H]2C)cc1,inactive: 0.993
6,Cc1cccc(NC(=O)CN2C(=O)CNC2=O)c1,inactive: 1
7,Cc1cccc(S(=O)(=O)N2C[C@@H](O)COC[C@H]3O[C@H](CC(=O)N4CCN(C)CC4)CC[C@@H]32)c1,inactive: 1.01
8,C[C@@H]1CCCCO[C@H](CN(C)Cc2ccc(C(F)(F)F)cc2)[C@@H](C)CN([C@@H](C)CO)C(=O)c2cc(NS(C)(=O)=O)ccc2O1,inactive: 0.965
9,C[C@@H]1CCCCO[C@@H](CN(C)S(C)(=O)=O)[C@@H](C)CN([C@H](C)CO)C(=O)c2cc(N(C)C)ccc2O1,inactive: 1.01
10,Cc1noc(C)c1NC(=O)Nc1ccc2c(c1)CC(=O)N([C@H](C)CO)C[C@H](C)[C@@H](CN(C)C(=O)NC(C)C)O2,inactive: 1.02
11,COc1cc(OC)cc(C(=O)Nc2nc(-c3ccc4c(c3)CCN4C(=O)CN3CCOCC3)cs2)c1,inactive: 1.01
12,c1cnc(-c2cn[nH]c2)cn1,inactive: 0.976
13,C[C@@H]1CN([C@H](C)CO)C(=O)Cc2cc(NS(=O)(=O)c3ccc(F)cc3)ccc2O[C@H]1CN(C)C(=O)Nc1cccc2ccccc12,inactive: 1.02
14,C[C@]1(CC(=O)O)C(=O)N=C2C=CC=CN21,inactive: 0.996
15,C[C@H](NC(=O)[C@H]1N[C@H]2c3ccc(-c4ccc(C(=O)N(C)C)cc4)c(=O)n3C[C@H]2[C@@H]1CO)c1ccccc1,inactive: 0.968
16,CN1CCN(C(=O)C[C@H]2CC[C@H]3[C@H](COc4ccc(NC(=O)c5cscn5)cc4C(=O)N3C)O2)CC1,inactive: 0.921
17,C[C@H](CO)N1C[C@H](C)[C@H](CN(C)Cc2ccc(C(=O)Nc3ccccc3N)cc2)Oc2ccc(NS(=O)(=O)c3ccc(Cl)cc3)cc2CC1=O,inactive: 0.975
18,O=C(C[C@@H]1C=C[C@H](NC(=O)Cc2ccccn2)[C@H](CO)O1)NCCc1ccncc1,inactive: 1.02
19,CCC[C@@]1(CCc2ccccc2)CC(=O)[C@@H]([C@H](CC)c2cccc(NS(=O)(=O)c3ccc(C(F)(F)F)cn3)c2)C(=O)O1,inactive: 1.04
20,COc1ccc(CN(C)C[C@@H]2OCCCC[C@@H](C)Oc3ccc(NS(=O)(=O)c4ccc(F)cc4)cc3C(=O)N([C@H](C)CO)C[C@H]2C)cc1,inactive: 0.998

# From the supplement of paper PMC9446081
